Where a structure was tested more than once in an assay, its records may differ in their call.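 For each line, cells grew in 96-well plates with the test compound present at a single concentration for 48 hours.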 Certain results were filed several times, with different values. This list holds those alone. The calls were made as follows: active = growth percent below 10; inactive = the rest. There may be further records. The screen tested this drug many times, at the concentration stated with the values; each value is one run. Counts like (3×) count equal records among those shown.
What was measured:
HOP-92 NSCLC = assay: NCI-60 one-dose screen, 48 h (100 = growth as untreated, 0 = no growth, -100 = all killed)
NCI-H522 lung = assay: as above; details: 0.25 µM

SMILES: COc1cccc2c1C(=O)c1c(O)c3c(c(O)c1C2=O)C[C@@](O)(C(=O)CO)C[C@@H]3OC1CC(N)C(O)C(C)O1 (stereo not given in full)
- growth (HOP-92 NSCLC; 0.25 µM, runs of 2021): inactive: 27.8, 12.5, 32.5, 25.4, 21, 15, 28.7, 17.3, 18.3, 17.8, 31.1, 17.7, 26.7, 23.1, 36.1, 28.4, 34.1, 29.4, 24.3, 13.9, 27.2, 37, 29.9 (2×), 37.6, 50.5, 44.1, 28.1, 34.4, 26.8, 30.4, 33.9, 35.2, 12.9, 33.8, 51.4, 12.4, 16.6, 45.2, 45.3, 40.3% and active: 9.42, 7.58, 5.69, 4.3, -4.18, 0.765, -3.36, 4.16, 0.795, -5.31, 8.54%
- growth (HOP-92 NSCLC; 0.25 µM, runs of 2022): active: -7.89, -8.7, -11.4, 3.53, -7.17, -2.69, -5.67, -12.5% and inactive: 61.2, 57.2, 42.8, 41.3, 40.1, 37.6, 12.9, 13.1, 56.8, 69.5, 30.7, 52.4, 47.6, 55.7, 13.4, 15.8, 35.7, 35.5, 32.7%
- growth (HOP-92 NSCLC; 25 µM, runs of 1991): active: -32.1, -42.7, -55, -57.8, -60.9, -32.9, -49.1, -39.8, -48.6, -48.4, -53.6, -62.6, -49.2, -44.3%
- growth (HOP-92 NSCLC; 25 µM, runs of 1992): active: -34.9, -52.7, -62.6, -34.3, -46.5, -70.9, -62.3 (2×), -53.1, -48.2, -51.9, -51.3, -29.9, -63.5, -46.2, -34.1, -62.5, -55.5, -50.8, -42.9, -38.4, -43.2, -44.1 (3×), -72.9, -49.8 (2×), -46.7, -45, -55, -0.803, -50.7, -35.5, -57.1, -44.9, -37.6, -60.3, -60.6, -51.1, -42.5, -49.1, -44.4, -28.7, -32.9 (2×), -49.9, -36.9, -38.7, -41, -54.2, -55.3, -64, -56.1, -66.6, -63.1, -45.2, -48.9, -36.1, -43.9, -28.9, -41.7, -48.1, -71.8, -58.5, -54 (2×), -36, -54.1, -40.5 (2×), -21.1, -43.7, -29.5, -22.1, -53.5, -45.8, -61.9, -59.5, -65.7, -50.5, -47.3, -43.4 (2×), -29.6, -35.2, -48.4, -59.9, -62.8, -61.1, -57, -43.6, -71.2, -59.7, -44.6, -37.5, -46, -62.1, -35, -36.2, -34, -43.5, -42.3%
- growth (HOP-92 NSCLC; 25 µM, runs of 1993): active: -52.4, -56.6, -3.87, -50.9, -68.3, -46.4, -30, -60.3, -59.2 (2×), -41.5, -45.8, -50.6, -35.8, -55.2, -26.8, -31, -85.1, -35.7, -61.8, -47, -57, -20.4, -47.7, -58.3, -54.2 (2×), -22.9, -35.2, -58.2, -59.3, -71.6, -41.7, -68.2, -54.4, -48.2, -62.1, -53.7, -66.2, -57.5%
- growth (HOP-92 NSCLC; 25 µM, runs of 1994): inactive: 67.8% and active: -25.9, -42.7, -50.7, -39.4, -55.4, -57.4, -47.2, -32.3, -40.8, -43.9, -20.8, -43.6, -37.6, -47.8, -33.3, -36.4, -49.3, -44.2, -19, -24.2, -46.7, -50.4, -32.7, -53.8, -63.5, -22.1, -58.3%
- growth (HOP-92 NSCLC; 25 µM, runs of 1995): active: -30.6, -66.4 (2×), -38.9, -37.6, -52.6, -59.6, -24.1, -50.2, -72.4, -38.3, -54.3, -67.9, -76.8, -50.6, -53.2, -63.8, -71.6, -46.6, -52.7, -53.8, -28.3, -81, -49.5, -48.9, -46.9, -65.4, -34.8, -41.5, -56.3, -67.5, -69.1, -68.3, -44.2, -69.3, -34.6%
- growth (HOP-92 NSCLC; 25 µM, runs of 1996): active: -53.3, -36.2, -17.5, -35.8 (2×), -36.6, -25.4, -37.5 (2×), -7.05, -45.2 (2×), -46.3, -45.7, -15.7, -39.1, -53.9, -37.1, -52.7, -43.5, -39, -44.6, -33.6, -50, -23.8, -24.8, -16, -27.5, -35.2, -42.2, -31, -38.4, -35.1, -46.4, -47, -32.5, -38.2, -18, -45.3, -33.7, -42.6, -62.6, -40.5, -37.7% and inactive: 73.3%, 13.3%, 18.7%
- growth (HOP-92 NSCLC; 25 µM, runs of 1997): active: -14.2, -41.1, -42, -30.7, -26.6, -28.3, -36.7, -35.8, -36.6, -22.6, -26.5, -53.3 (2×), -37.9, -57.6, -35.5, -80.7, -59.4, -61.8 (2×), 6.84, -44.4, -48.2, -32.2, -36.3, -34.7, -54.4, -46, -45.2, -33.6, -65, -58.7, -69.2, -62.5, -56.1, -50%
- growth (HOP-92 NSCLC; 25 µM, runs of 1998): active: -37, -16.9, -27.4, -16.3, -50.2, -74.4, -48.8, -39.2, -48.7, -21.2, -23.2, -42.6, -58.1, -23.5, -52.1, -43.7, -27, -46.1, -42% and inactive: 32.2%
- growth (HOP-92 NSCLC; 25 µM, runs of 1999): active: -40.5, -100, -84.8, -64.2, -84.2, -52.7, -61.9, -71.3, -87.3, -66, -62.4, -56.2%
- growth (HOP-92 NSCLC; 25 µM, runs of 2000): active: -87.3%, -86.1%, -78.7%
- growth (NCI-H522 lung; runs of 2006): inactive: 20.7%, 26.8%
- growth (NCI-H522 lung; runs of 2007): inactive: 24.8, 17.8, 17.6, 45.9, 17.3, 37.1, 13.5, 23.9, 25.6, 22.8, 20.7, 35.9, 34.8, 10.2, 33.6, 18.4, 18.7, 14.2, 10.5, 19.6, 45, 59.9 (2×), 81.2, 68.2, 59.3, 85.7, 82.2, 41.8% and active: -1.12, -6.9, -2.48, -6, -8.25, -30.5, -13, 2.32, -1.79, -27.4, -1.84, -0.0876%
- growth (NCI-H522 lung; runs of 2008): active: -5.55, 7.4, 0.726, 2.54, -24.8, 5.79, -28.5, 7.54, 0.863, 7.04, -19.9, -24.2, 1.75, -43.5, -0.675, -12.8, 3.72, -49.7, 5.1, 2.9, -4.65, -3.48, -10.1, 1.57, 2.36, 6.67 (2×), 0.159, 6.25, -4.13, -10.8, 0.976, 6.55, -1.26, -3.86, -27.7% and inactive: 58.2, 11 (2×), 24.7, 20.8, 11.3, 53.7, 11.2 (2×), 23.6, 33.7, 18, 40.9, 35, 31, 16.7, 21%

Reference: PubChem BioAssay (NCI)
